Variants at the background level are over-represented here.

The labels stand for the following.
B1: TPR 5TU (parent)
chain: GGAUCUUCUCGAUCUAACAAAAAAGACAAAUCUGCCACAAAGCUUGAGAGCAUCUUCGGAUGCAGAGGCGGCAGCCUUCGGUGGCGCGAUAGCGCCAACGUUCUCAACUAUGACACGCAAAACGCGUGCUCCGUUGAAUGGAGUUUAUCAUG

In the series the parent is B1. In words: polymerase ribozyme fitness, log enrichment relative to wild type (log ratio); higher = more active; in vitro selection for triplet polymerase activity. In a few lines:
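Mutant libraries for each subunit of a heterodimeric triplet polymerase ribozyme were made by PCR and then transcribed. Each library underwent one round of in vitro selection in triplicate: annealing with a biotinylated primer, the partner subunit and triplets, frozen incubation at −7 °C, gel excision of extended constructs, streptavidin-bead capture and RT-PCR. Input and output libraries were Illumina-sequenced, and only genotypes with ≥10 input reads and ≥1 read per output were kept. Fitness is the logarithm, base 2, of genotype enrichment over wild-type enrichment, computed from inverse-variance-weighted replicate averages.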
As to GGAUCUUCUCGAUCUAACAAAAAAGACAAAUCUGCUACAAAGCUUGAGAGCAUCUUCGGAUGCAGAGACGGCAGCCUUCGGUGGCGCGAUCGCGCCAACGUUCUCAACUAUGACACGCAAAACGCGUGCUCCGUUGAAUGGUGUUUAUCAUG, the “polymerase ribozyme fitness (log ratio)” value is no more than -4.2.
To GGAUCUUCUCGAUCUAACAAAAAAGACAAAUCUGCUACAAAGCUUGAGAGCAACUUCGGAUGCAGAGGCGGCAACCUUCGGUGGCGCGAUAGCGCCAACGUUCUCAACUAUGUCACGCAAAACGCGUGCUCCGUUGAAUGGAGUUUAUCAUG belongs no more than -4.2; to GGAUCUUCUCGAUCUAACAAAAAAGACAAAUCUGCCCCACAGCUUGAGAGCAUCUUCUGAUGCAGAGGCGGCAGCCUUCGGUGGCGCGAUAGCACCUACGUUCUCAACUAUGACACGCAAAACGCGUGCUCCGUUGAAUGGACUUUAUCAUG, no more than -4.2; to GGAUCUUCUCGAUCUAACAAAAAAGACAAAUCUGCCCCAACGCUUGAGAGCAUCUUCGGAAGCAGAGGCGGCAGCCUUCGGUGGCCCGAUAGCGCCAACGUUCUCCACUAUGACACGCAAAACGCGUGCUCCGUUGAAUGAAGUUUAUCAUG, no more than -4.2.
The figure for GGAUCUUCUCGAUCUAACAAAAAAGACAAAUCUGCCCCAACGCUUGAGAGCAGCUUCGAAUGCAGAGGCGGCAGCCUUCGGUGACGCGAUAGCGCCAACGUUAUCAACUAUGACACGCAAAACGCGUGCUCCGUUGAAUGGAGUAUAUCAUG is no more than -4.2; for GGAUCUUCUCGAUCUAACAAAAAAGACAAAUCUGCUACAAAGCUUGAGAGCAUCAUCGGCUGCAGAGGCGGCAGCCUUCGGUGGCGCGAUAGCGCCAACGUUCUCAACUAUGACACGCAAAACGCGUGCUCCGUUGAAUGGAGUUAAUCAUG it is no more than -4.2.
In the case of GGAUCUUCUCGAUCUAACAAAAAAGACAAAUCUGCUACAAAGCUUGAGAGCAUCUUCGGAAGCAGAGGCGGCAGCCUUCGGUGGCGCGAUAACGUCAACGGUCUCAACUAUGACACGCAAAACGCGUGCUCCGUUGAAUGGAGUUUAUCAUG, the “polymerase ribozyme fitness (log ratio)” value is no more than -4.2.
On to GGAUCUUCUCGAUCUAACAAAAAAGACAAAUCUGCCCCAAGGCUUGAGAGCAUCUUCGGAUGCAGAGGCGGCAGCCUUCGGUGGCCCGAUAUCGUCAACGUUCUCAACUAUGACACGCAAAACGCGUGCUCCGUUGAAUGGAGUUUAUCAUG, for which the “polymerase ribozyme fitness (log ratio)” value was -3.05.
To GGAUCUUCUCGAUCUAACAAAAAAGACAAAUCUGCUACAAAGCUUGAGAGCAUCAUCGGAUGCAGAGGCGGCAGCCUUCGGUGGCGCGAUAGCGCCGACGUUCUCAACUAUGACACGCAAGACGCGUGCUCCGGUGAAUGGAGUUUAUCAUG belongs -3.22.
To GGAUCUUCUCGAUCUAACAAAAAAGACAAAUCUGCUACAAAGCUUGAGAGCAUCUUCAGAUGCAGAGGCGGCAGCCUUCGGUGGCGCGAUAGCGCCAACGUUCUCAACUAUGACACGCGAAACGCGUGCUCCGUUGAAUAGAGUUUAUCAUG belongs -4.18; to GGAUCUUCUCGAUCUAACAAAAAAGACAAAUCUGCCCCCAAGCUUGAGAGCAUCUUCGGAUGCAGAGGCGGCAGCCGUCGGUGGCGCGAUAGCGCCAACGUUCUCAACUAUGUCACGCAAAACGCGUGCUCCGUUGAAUGGAGUUUAUCAUG, no more than -4.2; to GGAUCUUCUCGAUCUAACAAAAAAGACAAAUCUGCUACAAAGCUUGAGAGCAUCUUCGGAUGCAGAGGCGGCAGCCUUCGGUGGCGCGAUAGCCCCAACGUUCUCAACUUUGACACGCAAAACGCGUGCUCCGUUGAAUGGGGUUUAUCAUG, no more than -4.2.
Consider GGAUCUUCUCGAUCUAACAAAAAAGACAAAUCUGCUACAAAGCUUGAGAGCAUCGUCGGAUGCAGAGUCGGCAGCCUUCGGUGGCGCGAUAGGGCCAACGUUCUCAACUAUGACACGCAAAACGCGUGCUCCGAUGAAUGGAGUUUAUCAUG, for which the “polymerase ribozyme fitness (log ratio)” value was no more than -4.2.
The figure for GGAUCUUCUCGAUCUAACAAAAAAGACAAAUCUGCCCCAGAGCUUGAGAGCAUCUUUGGAUGCAGAGGCGGCCGCCUUCGGUGGCGCGAUAGUGCCAACGUUCUCAACUAUGACACGCAAAACGCGUGCUCCGUUGAAUGGAGUUUAUCAUG is no more than -4.2.
In the case of GGAUCUUCUCGAUCUAACAAAAAAGACAAAUCUGCUACAAAGCAUGAGAGCAUCUUCGGAUGCAGAGGCGGCAGCCUUCGGUGGCGCGAUAGCGCCAACGUUCUCGACUAUGACACGCAUAACGCGUGCUCCGUUGAAAGGAGUUUAUCAUG, the “polymerase ribozyme fitness (log ratio)” value was no more than -4.2.
In the case of GGAUCUUCUCGAUCUAACAAAAAAGACAAAUCUGCUACAAAGCUUGAGAGCAUCUUCUGAUGCAGAGGCGGCAGCCUUCGGUGGCGCGAUAGCACCAACGUUCUUAACUAUGACACGCAAAACGUGUGCUCCGUCGAAUGGAGUUUAUCAUG, the “polymerase ribozyme fitness (log ratio)” value was -3.89.
The figure for GGAUCUUCUCGAUCUAACAAAAAAGACAAAUCUGCUACAAAGCUUGAGAGCAUCUUCGGAUGCAGAGGCGGCAACCUUCGGUGGCGCGAUAGCGCCAUCGCUCGCAACUAUGACACGCAAAACGCGUGCUCCGUUGAAUUGAGUUUAUCAUG is no more than -4.2; for GGAUCUUCUCGAUCUAACAAAAAAGACAAAUCUGCUACAAAGCUUGAGAGCAUCUUCGGAUGCAGAGGCGGCAGCCUUCGAUGGCGCGAUAGCGGAAAUGUUCUCAACUAUGACACGCAAAACGCGUGCUCCGUUGAAUGGAGUUUAUGAUG it is no more than -4.2.
The figure for GGAUCUUCUCGAUCUAACAAAAAAGACAAAUCUGCCCCAACGCUUGAGAGCAUCUUCGGAUGCAGAGGCGGAAGCCUUCGGUGGCGCGAUAGUGCCAACGUUCUCAACUAUGACACGCAAAACGUGUGCUCCGUUGAAUGGAGUUUAUCAUG is no more than -4.2.

Values taken from the RNAGym collection of RNA variant scans (doi:10.1073/pnas.2313332121).
